Measured values: patent US20230120736A1, “ANTI-CD98 ANTIBODIES AND ANTIBODY DRUG CONJUGATES” (AbbVie Inc., priority 2016, published 2023)
Substitutions are numbered along the chain they refer to.

T1: human CD98 (Homo sapiens, UniProt P08195)
T1 sequence (P08195 1-630 isoform P08195-1): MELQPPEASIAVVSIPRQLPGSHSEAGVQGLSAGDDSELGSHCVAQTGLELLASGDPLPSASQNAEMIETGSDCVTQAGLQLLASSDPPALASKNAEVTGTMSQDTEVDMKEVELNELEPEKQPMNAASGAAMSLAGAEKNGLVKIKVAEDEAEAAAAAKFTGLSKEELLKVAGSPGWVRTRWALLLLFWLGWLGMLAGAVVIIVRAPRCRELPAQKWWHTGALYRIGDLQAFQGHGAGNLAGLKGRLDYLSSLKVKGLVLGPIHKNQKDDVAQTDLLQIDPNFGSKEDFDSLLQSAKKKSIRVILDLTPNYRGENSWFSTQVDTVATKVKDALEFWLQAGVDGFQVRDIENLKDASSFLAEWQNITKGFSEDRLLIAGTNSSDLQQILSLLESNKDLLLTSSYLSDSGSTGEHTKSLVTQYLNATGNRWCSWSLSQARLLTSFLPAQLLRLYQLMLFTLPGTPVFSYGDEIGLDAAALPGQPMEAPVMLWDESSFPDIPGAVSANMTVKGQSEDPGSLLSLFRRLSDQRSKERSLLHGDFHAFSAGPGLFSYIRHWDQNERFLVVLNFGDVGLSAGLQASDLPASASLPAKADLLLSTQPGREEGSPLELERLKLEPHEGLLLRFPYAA

T2: human CD98 ECD (Homo sapiens, UniProt P08195)
T2 construct: Human CD98 ECD with C-terminal His-tag
T2 sequence (P08195 with tags, fused parts or gaps): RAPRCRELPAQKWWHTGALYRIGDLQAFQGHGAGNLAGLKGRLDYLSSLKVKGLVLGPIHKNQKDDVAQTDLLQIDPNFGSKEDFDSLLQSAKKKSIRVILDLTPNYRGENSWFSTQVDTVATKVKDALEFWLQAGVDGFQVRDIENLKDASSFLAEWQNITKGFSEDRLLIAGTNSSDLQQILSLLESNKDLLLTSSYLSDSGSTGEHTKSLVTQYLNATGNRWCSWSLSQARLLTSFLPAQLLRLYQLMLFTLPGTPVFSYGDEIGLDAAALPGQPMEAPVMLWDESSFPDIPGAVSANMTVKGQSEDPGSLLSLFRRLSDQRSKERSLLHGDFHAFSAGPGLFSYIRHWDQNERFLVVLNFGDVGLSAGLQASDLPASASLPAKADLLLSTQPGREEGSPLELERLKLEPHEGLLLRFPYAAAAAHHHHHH

B1: huAb3v1 (antibody, V domains shown)
VH: EVQLVESGGGLVQPGRSLRLSCTTSGFTFIDYYMSWVRQAPGKGLEWLGFIRNKANRYTTEYSASVKGRFTISRDNSKSILYLQMNSLKTEDTAVYYCTRDRPAWFVYWGQGTLVTVSS
VL: DIVMTQSPDSLAVSLGERATINCKSSQSLLYSSNQKNYLAWYQQKPGQSPKLLIYWASTRESGVPDRFSGSGSGTDFTLTISSLQAEDVAVYYCQQYYSYPYTFGGGTKVEIK
B2: huAb3v2 (antibody, V domains shown)
VH: B1 VH with N56Y, R57G
VL: B1 VL

How the values were obtained:
[1] = target: T1, human CD98; assay: Binding of humanized antibodies to human CD98; conditions: humanized variants of chAb3 and chAb15
[2] = test system: cynomolgus monkey CD98 ECD; assay: Biacore surface plasmon resonance binding kinetics (anti-Fc capture); conditions: cyCD98 ECD
Procedure: (§1) The binding kinetics of these purified mouse and rat monoclonal anti-CD98 antibodies for purified recombinant CD98 protein (extracellular domain, ECD) were determined by surface plasmon resonance-based measurements made on Biacore T100/T200 instruments (GE Healthcare, Piscataway, N.J.) at 25° C. using an anti-Fc capture assay approach. Binding kinetic measurements were made in the assay buffer HBS-EP+: 10 mM Hepes, pH 7.4, 150 mM NaCl, 3 mM EDTA, 0.05% Tween 20). For example, approximately 8000 RU of anti-Fc (species specific) polyclonal antibody (Thermo Fisher Scientific Inc., Rockford, Ill.) diluted in 10 mM sodium acetate (pH 4.5) was directly immobilized across a CM5 research grade biosensor chip using a standard amine coupling kit according to manufacturer's instructions and procedures at 25 μg/ml. Unreacted moieties on the biosensor surface were blocked with ethanolamine. The test antibody to be captured as a ligand was diluted in running buffer to ˜0.5 μg/mL and injected over anti-Fc surface at a flow rate of 10 μL/min. CD98 binding and dissociation were observed under a continuous flow rate of 80 μL/min. Human and cynomolgus monkey CD98 ECDs, both with a C-terminal His-tag, are used for this study (Table 3). After each cycle the anti-Fc capture surface was regenerated using 10 mM Glycine-HCl, pH 1.5. During the assay, all measurements were referenced against the capture surface alone (i.e., with no captured test antibody) and buffer-only injections (no antigen) were used for double referencing. For kinetic analysis, rate equations derived from the 1:1 Langmuir binding model were fitted simultaneously, globally and with mass transfer term included to multiple referenced antigen binding curves using Biacore T100/T200 Evaluation software.
(§2) The in vitro binding activities of the recombinant anti-CD98 chimeric mAbs were measured against both recombinant CD98 extracellular domain proteins (ECDs) and CD98-expressing cells. Briefly, binding kinetics of anti-CD98 chimera mAbs for human and cynomolgus CD98 ECDs were determined by surface plasmon resonance-based measurements as described in Example 4. Table 10 reported the association and dissociation rate constants for CD98 binding, ka (M^−1 s^−1) and kd (s^−1), and the equilibrium dissociation constant KD (M) of the interaction between antibodies and the target antigen. Binding of anti-CD98 chimera mAbs for CD98 on cell surface was evaluated by flow cytometry against CHO-K1 cell line stably transfected to express human CD98 and 3T12 cell line stably transfected to express cynomolgus monkey CD98.
(§3) The binding kinetics of the recombinant anti-CD98 chimeric antibodies for purified recombinant CD98 protein (extracellular domain, ECD) were determined by surface plasmon resonance-based measurements, as described in the Example 4.

[3] = target: T2, human CD98 ECD; assay: as above; conditions: huCD98 ECD
Procedure: as §1, §2, §3

[4] = Conjugation of anti-CD98 mAbs with Bcl-xL inhibitor synthons (precipitation, DAR, recovery, aggregation); conditions: mAb conjugated with Bcl-xL inhibitor synthon CZ, Method A
Procedure: Method A. A solution of BOND-BREAKER tris(2-carboxyethyl)phosphine (TCEP) solution (10 mM, 0.017 mL) was added to a solution of antibody (10 mg/mL, […]) preheated to 37° C. The reaction mixture was kept at 37° C. for 1 hour. The solution of reduced antibody was added to a solution of synthon (3.3 mM, 0.160 mL in DMSO) and gently mixed for 30 minutes. The reaction solution was loaded onto a desalting column (PD10, washed with DPBS 3x before use), followed by DPBS (1.6 mL) and eluted with additional DPBS (3 mL). The purified ADC solution was filtered through a 0.2 micron, low protein-binding 13 mm syringe-filter and stored at 4° C.
Method E. A solution of BOND-BREAKER tris(2-carboxyethyl)phosphine (TCEP) solution (10 mM, 0.017 mL) was added to the solution of antibody (10 mg/mL, 1 mL) at room temperature. The reaction mixture was heated to 37° C. for 75 minutes. The solution of reduced antibody cooled to room temperature and was added to a solution of synthon (10 mM, 0.040 mL in DMSO) followed by addition of boric buffer (0.1 mL, 1M, pH 8). The reaction solution was let to stand for 3 days at room temperature, loaded onto a desalting column (PD10, washed with DPBS 3×5 mL before use), followed by DPBS (1.6 mL) and eluted with additional DPBS (3 mL). The purified ADC solution was filtered through a 0.2 micron, low protein-binding 13 mm syringe-filter and stored at 4° C.

Molecule	binding to human CD98 [1]	ka [2]	kd [2]	ka [3]	kd [3]	DAR by MS [4]	Key observation for ADC solution during and after conjugation [4]	aggregation level [4]
B1	maintained binding	40000 M⁻¹ s⁻¹	0.00092 s⁻¹	180000 M⁻¹ s⁻¹	0.0023 s⁻¹	3.4	Cloudy during conjugation; precipitated at 4 °C	–
B2	maintained binding	29000 M⁻¹ s⁻¹	0.00049 s⁻¹	260000 M⁻¹ s⁻¹	0.0013 s⁻¹	3.0	Precipitated during and after conjugation; aggregation	level 16.52%
